Each structure is given as a SMILES string. The campaign covered roughly 150,000 compounds. About 540 (0.36%) showed an effect of 50% or more. The list shows a part of the results.

The assay has as its system Plasmodium falciparum. Kind of assay: Primary screen in NF54 nanoGlo assay, in single point, at 2uM, 72h; a lower Z score goes with more inhibition. It counts as functional, Erythrocyte. The settings on record: timepoint 72 hour.
Broadly, the % Inhibition is the change of the read-out against control, counted positive when it falls. In the case of `Cc1nn(-c2ccccc2)c(=O)n1CC(=O)NCCN1CCOCC1`, the “% Inhibition” value is listed as -5% and the Z score is 0.75.

On to `c1ccc(-c2csc(CN3CC(N4CCCCC4)C3)n2)cc1`, for which the “% Inhibition” value was -11% and the Z score was 1.36.

For `O=C(C1CCN(c2nccs2)CC1)N1CCN(S(=O)(=O)c2ccc(F)cc2)CC1`, the “% Inhibition” value came to 0% and the Z score came out at 0.06.

In the case of `O=C(CCn1cnc2ccccc2c1=O)N1CC(S(=O)(=O)c2ccc(Cl)cc2)C1`, the “% Inhibition” value is recorded as -22% and the Z score is 2.85.

For `CCN(Cc1noc(CC(C)C)n1)C(=O)CN1C(=O)OC[C@@H]1C(C)C`, the “% Inhibition” value was -10% and the Z score is 1.54.

As to `Cc1cc(CN2CCN(C(=O)NCc3ccccn3)CC2)on1`, the “% Inhibition” value was -9% and the Z score worked out at 1.24.

For the compound `Cc1nccc(CCC(=O)NC[C@H]2CCC(C)(C)O2)n1`, the “% Inhibition” value is recorded as -5% and the Z score is recorded as 0.86.

In the case of `CCCn1c(C(=O)NCCN2CCOCC2)cc2cc(NS(=O)(=O)c3ccc(C(C)(C)C)cc3)ccc21`, the “% Inhibition” value is recorded as -7% and the Z score was 0.88.

`CCc1nc(CC)n(Cc2nc(-c3ccccn3)no2)n1`: the “% Inhibition” value was -11% and the Z score was 2.07.

Turning to `COC[C@H](C)Nc1ccc(C)c(C(=O)OC)c1`, the “% Inhibition” value is on record as -8% and the Z score turned out to be 1.19.

In the case of `CCN1CC(=O)N(c2cscc2Cl)C1=O`, the “% Inhibition” value is on record as -1% and the Z score came to 0.27.

In the case of `O=C(NCCC1CCCCO1)C1NCC12CCCC2` (stereo unspecified), the “% Inhibition” value is recorded as 2% and the Z score was -0.26.

Take `Fc1cccc(F)c1-c1n[nH]cc1CN1CCCc2n[nH]cc21`: the “% Inhibition” value was -4% and the Z score worked out at 0.34.

On to `Cc1nc(C)c(C(=O)Nc2nc(-c3cccs3)nn2C)s1`, for which the “% Inhibition” value is recorded as -7% and the Z score amounted to 0.62.

Turning to `COC(C)c1nc(CN2C(=O)C3CCCCN3C2=O)cs1` (stereo unspecified), the “% Inhibition” value is -10% and the Z score came to 1.16.

Turning to `CC(=O)N1CCC(CNc2nc(N)cc(C(C)(C)C)n2)CC1`, the “% Inhibition” value is -7% and the Z score is 1.46.

Regarding `O=C(C1CC12CC2)N1CCOCC1C1CCC1` (stereo unspecified), the “% Inhibition” value was 10% and the Z score was -1.91.

For the compound `Cc1noc(C)c1CN(C)Cn1nc2ccccn2c1=O`, the “% Inhibition” value is -36% and the Z score stood at 4.21.

Regarding `C[C@H](CC(=O)N(C)c1ccc(-c2onc3c2CCc2ccccc2-3)cc1)CC(C)(C)C`, the “% Inhibition” value is reported as -3% and the Z score turned out to be 0.43.

With `COc1ccccc1[C@@H]1CCCN1CCC(=O)Nc1cccnc1`, the “% Inhibition” value was 1% and the Z score is -0.08.

Consider `N#Cc1cnc2c(F)cc(F)cc2c1NCC1(O)CCOCC1`, for which the “% Inhibition” value is 3% and the Z score was -0.69.

Regarding `O=C(Nc1ccc(Cl)c(N2CCCS2(=O)=O)c1)NC1CCOCC1`, the “% Inhibition” value is recorded as -13% and the Z score worked out at 1.52.

For `CCc1nccn1C[C@H](C)N1CCN(Cc2cccs2)CC1`, the “% Inhibition” value is given as -8% and the Z score stood at 1.39.

`Cc1ccc(Cl)c(C(=O)N2CCc3[nH]c(-c4ccccc4)nc3C2)c1`: the “% Inhibition” value is recorded as -3% and the Z score amounted to 0.31.

Turning to `C[C@@H](O)CNC(=O)NCC(C)(C)c1ccncc1`, the “% Inhibition” value is reported as -10% and the Z score is reported as 1.9.

For `COc1ccc(CNC(C)(C)CO)cc1Cl`, the “% Inhibition” value is reported as -19% and the Z score stood at 1.7.

For `CC(C)CC(=O)N1CCCn2nc(-c3ccc(C(F)(F)F)cc3)cc2C1`, the “% Inhibition” value is -17% and the Z score worked out at 1.87.

As to `CC(C)(C)n1cnc(-c2nc([C@@H]3CCCCO3)no2)n1`, the “% Inhibition” value is listed as -25% and the Z score is given as 3.13.

`Cc1nn(C)c(OC[C@H]2CCCCO2)c1C(=O)NCc1noc2c1CCCC2`: the “% Inhibition” value was -6% and the Z score came out at 0.48.

For `CCn1c(CNc2ccc(Br)cc2)nc2cc(S(=O)(=O)N3CCCCC3)ccc21`, the “% Inhibition” value is -7% and the Z score is on record as 1.31.

Consider `O=C1CC2(CCN(c3nc(-c4ccccc4)cs3)CC2)CN1`, for which the “% Inhibition” value is given as -5% and the Z score worked out at 0.63.

On to `C=CCC[C@@H](CN1CCCOCC1)Oc1nccc(C)n1`, for which the “% Inhibition” value was -15% and the Z score came out at 2.49.

`Nc1ncnc2cc(C(=O)N3CC4(CC4)C3)ccc12`: the “% Inhibition” value is recorded as -8% and the Z score was 1.56.

For the compound `CC1CCCCC1C(=O)Nc1[nH]nnc1C(=O)NC1CC1` (stereo unspecified), the “% Inhibition” value was -6% and the Z score was determined as 0.87.

On to `CN1CCc2[nH]nc(C(=O)NC[C@H]3CCc4ccccc4O3)c2C1`, for which the “% Inhibition” value was -2% and the Z score amounted to 0.32.

`CCOc1ccc(CNCCC(=O)O)cc1Cl`: the “% Inhibition” value was -2% and the Z score is listed as 0.27.

With `COC[C@H](NC(=O)C1CCCC1)C(N)=O`, the “% Inhibition” value is -2% and the Z score is reported as 0.35.

As for `Cc1cc(C)c(C(=O)NS(=O)(=O)c2c(C)nn(C)c2C)o1`, the “% Inhibition” value stood at 6% and the Z score is -0.88.

Take `CCCCN1CCN(C(=O)c2ccc3c(c2)nc2n3CCN(Cc3ccccc3)C2=O)CC1`: the “% Inhibition” value was -9% and the Z score came out at 1.15.

As to `CC(C)CN1CCC(NC(=O)N2CCC[C@H](C)C2)CC1`, the “% Inhibition” value is recorded as -6% and the Z score came to 0.76.

For the compound `Cc1ccccc1OC1CN(C(=O)C(C)(C)N2CCOCC2)C1`, the “% Inhibition” value is -5% and the Z score was 0.47.

Regarding `CC1C(C(F)(F)F)OCCN1c1nnc(-c2ccon2)s1` (stereo unspecified), the “% Inhibition” value was -12% and the Z score came to 1.47.

For the compound `CC(=O)c1cccc(NS(=O)(=O)c2ccc(S(=O)(=O)N3CCCCC3)cc2)c1O`, the “% Inhibition” value was -7% and the Z score stood at 0.68.
